# Laboratory results taken from the supplement of paper PMC3334620.
# Whole data set: some 33,000 sequences, median “E-score (-0.5 to 0.5)” near -0.043, cut for the highest 2% near 0.37. Some of the results follow.
# Target: T1, Upc2 (UniProt Q12151)
# T1 sequence: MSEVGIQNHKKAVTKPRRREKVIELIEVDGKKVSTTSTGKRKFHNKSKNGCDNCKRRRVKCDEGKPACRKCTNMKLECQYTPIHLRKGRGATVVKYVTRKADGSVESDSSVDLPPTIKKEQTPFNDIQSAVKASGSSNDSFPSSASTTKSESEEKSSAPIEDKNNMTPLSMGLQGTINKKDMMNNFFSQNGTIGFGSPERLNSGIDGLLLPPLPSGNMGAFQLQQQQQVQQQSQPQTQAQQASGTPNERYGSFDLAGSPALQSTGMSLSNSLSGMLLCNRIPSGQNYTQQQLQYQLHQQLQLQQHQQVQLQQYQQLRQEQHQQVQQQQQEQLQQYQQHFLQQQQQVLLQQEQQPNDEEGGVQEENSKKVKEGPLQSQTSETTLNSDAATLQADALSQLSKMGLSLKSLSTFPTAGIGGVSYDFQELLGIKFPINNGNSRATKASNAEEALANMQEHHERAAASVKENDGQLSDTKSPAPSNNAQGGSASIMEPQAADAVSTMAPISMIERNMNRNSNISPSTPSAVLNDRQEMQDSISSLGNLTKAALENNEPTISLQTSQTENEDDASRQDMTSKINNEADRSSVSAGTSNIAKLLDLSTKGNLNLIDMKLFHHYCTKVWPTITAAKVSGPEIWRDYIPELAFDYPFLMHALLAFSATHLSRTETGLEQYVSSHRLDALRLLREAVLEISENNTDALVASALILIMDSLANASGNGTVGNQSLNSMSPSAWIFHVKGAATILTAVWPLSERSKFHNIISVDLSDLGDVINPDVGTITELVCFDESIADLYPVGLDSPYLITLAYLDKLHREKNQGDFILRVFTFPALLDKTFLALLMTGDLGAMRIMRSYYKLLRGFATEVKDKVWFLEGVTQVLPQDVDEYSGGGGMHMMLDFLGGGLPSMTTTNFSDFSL
# Test: PBM E-score (8-mer binding enrichment) (E-score (-0.5 to 0.5)); higher = stronger / more preferred TF binding; most listed sequences are background and not binding sites
# Details: protein concentration: 200 nM; construct: GST-full length
# Outline: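 GST-tagged yeast TFs (full-length or DNA-binding domain) were made by PURExpress in vitro transcription/translation and applied at about 100-200 nM to universal all-10-mer Agilent arrays. The arrays were made double-stranded by primer extension, on fresh or once-stripped slides. Bound protein was detected with fluorescent anti-GST, and scans were normalised with masliner. Each ungapped eight-base word, pooled with its reverse complement, received an E-score (modified Wilcoxon-Mann-Whitney statistic) from the Universal PBM Analysis Suite.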
row,Sequence,PBM E-score
1,GTAGCATA,-0.0733
2,TTAAAAAA,0.129
3,ACCCCGTG,-0.0557
4,CGTAATAC,0.274
5,CCGCTGGA,-0.0874
6,ATTATTCG,0.179
7,GTAAGGAA,0.0353
8,CGAGCGAG,0.28
9,ATTATAAG,0.151
10,GCTTAGGA,-0.0422
11,CCATTACA,0.154
12,CGGAGCCA,-0.254
13,GAGGGCAC,-0.183
14,ACCCTTTA,-0.00687
15,ACGGCAAA,0.174
16,AGCCCCCC,-0.0354
17,CAATATCG,0.0727
18,CGCAGAGC,-0.107
19,CTAACTGC,-0.183
20,AACCCCCC,-0.204
21,ATGCCCCC,-0.151
22,GCATCTTA,0.184
23,CCTATGCG,0.152
24,AACCGTCG,0.246
25,ATCCCGCA,-0.0502

row,Sequence,PBM E-score
1,CATCGTGC,0.054
2,AAAAGCGA,0.175
3,GTCCTTGA,-0.103
4,CTCCGTGA,-0.152
5,ACCTACAG,-0.143
6,GAGACTAC,-0.0152
7,CCGAAAAC,0.0594
8,AAGACTGA,-0.0443
9,CCAATTAC,0.0231
10,AATGGTAG,0.142
11,GTCGCTGA,-0.0513
12,GACCACAA,-0.239
13,CATCAAGG,-0.155
14,GTACTAAC,0.0835
15,ACATACAG,-0.0295
16,AGCGATGG,-0.00122
17,AAATGCTG,-0.0296
18,CTTGGTGA,-0.0852
19,AATTAAGC,0.207
20,CCTGAGTA,-0.119
21,CTGGCCGC,-0.329
22,CTCAGTAA,-0.00462
23,GAATAAGA,0.0821
24,AAATTATA,0.112
25,CATCTGGC,-0.219

row,Sequence,PBM E-score
1,CCGGAAGG,-0.336
2,AACTATGC,0.051
3,CTTTAACC,0.0671
4,ACGTTGAG,-0.0536
5,AAGCCAAA,-0.0119
6,CATAGCCC,-0.234
7,ATAAACTG,-0.0103
8,TAGAATAA,-0.0184
9,CACAGGCC,-0.201
10,GGGCACAC,-0.26
11,CATTTCGA,0.0247
12,CTGGAATC,-0.224
13,TCATTGAA,0.089
14,GAGCGGGA,-0.0733
15,TGTTTTAA,0.0305
16,CGAATGGA,0.0618
17,CATACACA,-0.0566
18,AATTAAAA,0.0987
19,ATTCCCGA,-0.0491
20,ACGTTTAC,0.369
21,CATCCGGA,-0.146
22,ACCCACCA,-0.0846
23,ATGTCGAA,-0.0759
24,GGGGCGGA,-0.0859
25,TACACTCA,0.0414

row,Sequence,PBM E-score
1,AATGAATG,-0.207
2,AGACTCAA,-0.0452
3,CTAAAACA,-0.0791
4,CCTCGGTC,0.19
5,CATTAGAG,-0.169
6,CTTAGAAC,0.00227
7,CTCTAACA,-0.111
8,AAGTGGCG,0.0293
9,CATTCTGG,-0.169
10,CTGAAGGA,-0.309
11,AGTAGTCC,-0.107
12,CTCTAGTA,-0.184
13,AATTCTTC,0.115
14,ACCACGAT,0.0232
15,GCTCGTGA,0.00182
16,CCTCTTTC,-0.156
17,GTCCACCA,-0.134
18,CAGTTTGG,-0.266
19,GCGTGAGC,0.0279
20,CATTACAC,0.132
21,GGTTCTAA,-0.0363
22,CGATATGC,0.149
23,ACCGCTAT,-0.0957
24,TAAGGAGA,-0.186
25,ATCCACCG,0.0348

row,Sequence,PBM E-score
1,CCCTTGAA,-0.129
2,ATTTGTGC,0.125
3,CCACCTGG,-0.371
4,ATGTTTCG,0.0556
5,CGTGGTAA,-0.117
6,ACTGGTTG,-0.114
7,AGTCAGAC,0.00734
8,GAAAATGC,0.0565
9,CCTATCAG,-0.238
10,CAGATACC,-0.184
11,AGCCGATC,-0.123
12,ATCAACGG,0.0765
13,GCAATGCA,-0.0366
14,AGAGCCTG,-0.0262
15,ACTTTGGG,-0.338
16,AAGGTACG,0.393
17,CAGACTGC,-0.057
18,GTGAATGA,-0.134
19,TCTAAGAA,-0.0204
20,ACAATTAC,0.133
21,AGACCGCG,0.075
22,ACTCGTAG,0.353
23,GCCAGCGC,-0.189
24,AACCCCTA,-0.214
25,AGAGATAG,0.0762

row,Sequence,PBM E-score
1,GCCGGGCA,-0.207
2,ATACTTGA,-0.0534
3,AGCGGCTC,0.122
4,AATCTGGA,-0.0824
5,GGCCATAA,-0.138
6,CCGGATAC,0.101
7,AATACATC,0.0318
8,CGAGAGAG,0.17
9,GGCGGCCC,-0.266
10,AACATTCA,-0.0881
11,GTCGTTGA,0.29
12,CCATTAGG,-0.249
13,CGAACGAG,0.427
14,AATACGAC,0.435
15,AGGATCAA,-0.144
16,ATAATCTG,-0.246
17,AAATCCCT,-0.13
18,ACCCCACC,0.0949
19,CAAGATCA,-0.208
20,CGACTCAG,-0.0901
21,ACTTACTA,-0.0802
22,CTTTCTAA,-0.127
23,ATACCCCA,-0.0468
24,TGGGGACA,-0.106
25,GAGTCTCA,-0.168

row,Sequence,PBM E-score
1,AGACATTA,-0.191
2,CAAAGGCG,-0.0107
3,ATTGTGAA,0.0323
4,GCAAGGTA,-0.0839
5,CAGCCCCA,-0.0376
6,CCTATGAA,-0.25
7,GGATACAA,-0.0197
8,CACCGCGG,0.0827
9,ACCTCACA,-0.0443
10,ACCTCGAG,0.0906
11,CATTATTA,0.0362
12,CCTTAAAC,0.315
13,CGGACCGA,0.168
14,CCCGGGAC,-0.271
15,TCACAAAA,-0.0213
16,CTTGTGTC,-0.134
17,CCCTGGAA,-0.172
18,AGCACGGA,-0.0713
19,ACACACCC,0.0815
20,TGGATAAA,0.0644
21,ACGTATCC,0.163
22,CGTTGTCC,0.0654
